Measurements reported in patent US9872922B2, “Anti-EFNA4 antibody-drug conjugates” (PFIZER, INC., priority 2013, dated 2018).

Assays:
Z138 = experiment: Flow cytometry antibody binding (MCF), Z138; settings: 10 μg/ml antibody; Z138, MCL
Procedure: (§1) Binding of humanized anti-EFNA4 antibodies huE22 and huE47 was assessed on EFNA4 expressing cells by flow cytometry. Adherent cells were dissociated using TrpLE Express (GIBCO cat #12604-021), neutralized with cell culture media and counted. Cells were plated into a U-bottom 96-well plate (BD Falcon cat #353077) with 5×10e5 cells/100 μL media/well. The plate was centrifuged at 300×g, 5 minutes, 4° C. to pellet cells and the supernatant was discarded. All reagents were kept on ice for the following steps. Each pellet was resuspended in 100 μL primary humanized anti-EFNA4 antibody (huE22 or huE47) or negative control antibody at 10 μg/mL in 3% BSA in PBS. The plate was incubated on ice for 30 minutes. The plate was centrifuged and the cell pellets were washed in 200 μL 3% BSA in PBS. Each cell pellet was resuspended in 100 μL of R-phycoerythrin (PE)-conjugated goat anti-human IgG Fc fragment (Jackson ImmunoResearch cat #109-115-098) that had been diluted 1:50 in 3% BSA in PBS. The plate was incubated on ice for 30 minutes. […] The samples were analyzed by flow cytometry using 5 μL 7AAD (B-D Pharmingen cat #51-68981E) per sample as a viability stain.
(§2) Endogenous EFNA4 expressing cancer cell lines were analyzed: Breast cell lines BT-483, HCC202 and MX-1, Chronic Lymphocytic Leukemia (CLL) cell line MEC1 and mantle cell lymphoma (MCL) cell line Z138.

Ephrin-A4 (EFNA4) = molecular target: T1, Ephrin-A4 (EFNA4) (Homo sapiens, UniProt P52798); experiment: Direct ELISA binding specificity, Ephrin-A4; settings: biotin-labeled antibody
T1 construct: purchased R&D
T1 sequence (P52798 26-170): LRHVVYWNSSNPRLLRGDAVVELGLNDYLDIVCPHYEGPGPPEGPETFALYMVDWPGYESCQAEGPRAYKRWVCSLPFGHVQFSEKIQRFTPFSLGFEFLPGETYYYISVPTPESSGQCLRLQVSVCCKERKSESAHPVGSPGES
Procedure: Further properties were determined using ELISA to analyze the binding specificity of anti-EFNA4 antibodies huE22 and huE47 to Ephrin-A4 (EFNA4) along with homologous family members Ephrin-A1 (EFNA1) and Ephrin-A3 (EFNA3). Antibody binding was determined by direct ELISA with Ephrin-A1-His, Ephrin-A3-huFc, Ephrin-A4-huFc and Ephrin-A5-huFc (all from R&D) coated on BioOne Microlon (Greiner) plates in PBS overnight at 4° C. Biotin-labeled huE22 and huE47 were incubated on the plate for 2.5 hours at room temperature and Streptavidin HRP was used to develop signal from biotin labeled antibody in the absence of interfering human IgG signal.

MX-1 = experiment: Flow cytometry antibody binding (MCF), MX-1; settings: 10 μg/ml antibody; MX-1, Breast
Procedure: as §1, §2

[1] = tested on: Ovarian-44 (OV44) ovarian cancer PDX; experiment: In vivo efficacy, OV44 ovarian cancer PDX; parameters: species or system NOD/SCID mice (human tumor PDX)
BR17 = experiment: In vivo efficacy, BR17 HER2+ breast tumor model; parameters: species or system mice; settings: 0.27 mg/kg
[2] = In vitro stability in buffer control, PBS w/1% BSA; format: in vitro ADME; settings: for total ADC amount remaining / total antibody amount remaining: 168 hours at 37° C., PBS w/1% BSA, mean n=3; for % total huE22 Ab remaining: Buffer (PBS w/1% BSA), mean; for % total huE22 Ab remaining / % huE22-AcBut-CM remaining: 37° C.; for % huE22-AcBut-CM remaining: buffer (PBS w/1% BSA), mean (n=3), total ADC by ELISA

B1: huE22 (antibody)
heavy: QVQLVQSGAEVKKPGASVKVSCKASGYTFTGYYIHWVRQAPGQGLEWMGWIYPGNFNTKYNERFKGRVTMTTDTSTSTAYMELRSLRSDDTAVYYCAREDGSPYYAMDYWGQGTSVTVSS[human IgG1 constant region omitted here]
VL: DIVMTQTPLSLSVTPGQPASISCRSSQSLVHSNGNTFLYWYLQKPGQSPQLLIYRVSNRFSGVPDRFSGSGSGTDFTLKISRVEAEDVGVYYCFQATHVPWTFGGGTKVEIK
- Mean Channel Fluorescent (MCF) (Z138): 44
- binding to Ephrin-A4 (EFNA4) (Ephrin-A4 (EFNA4)): binds to EFNA4
- Mean Channel Fluorescent (MCF) (MX-1): 12.8

B2: huE22-AcBut-CM: huE22 conjugated via lysine residues to AcBut-N-acetyl-γ-calicheamicin dimethyl hydrazide (AcBut-CM) (conjugate)
heavy: B1 heavy
light: DIVMTQTPLSLSVTPGQPASISCRSSQSLVHSNGNTFLYWYLQKPGQSPQLLIYRVSNRFSGVPDRFSGSGSGTDFTLKISRVEAEDVGVYYCFQATHVPWTFGGGTKVEIKRTVAAPSVFIFPPSDEQLKSGTASVVCLLNNFYPREAKVQWKVDNALQSGNSQESVTEQDSKDSTYSLSSTLTLSKADYEKHKVYACEVTHQGLSSPVTKSFNRGEC
- mean tumor volume ([1]; 0.09 mg/kg, Day 11): 328 ± 39
- mean tumor volume ([1]; 0.09 mg/kg, Day 18): 299 ± 29
- mean tumor volume ([1]; 0.09 mg/kg, Day 25): 313 ± 39
- mean tumor volume ([1]; 0.09 mg/kg, Day 0): 148 ± 16
- mean tumor volume ([1]; 0.09 mg/kg, Day 5): 236 ± 20
- mean tumor volume ([1]; 0.09 mg/kg, Day 32): 414 ± 50
- mean tumor volume ([1]; 0.09 mg/kg, Day 39): 497 ± 44
- mean tumor volume ([1]; 0.09 mg/kg, Day 46): 610 ± 28
- mean tumor volume ([1]; 0.09 mg/kg, Day 53): 957 ± 99
- % TGI ([1]; 0.09 mg/kg, OV44 PDX): 59% TGI
- tumor growth delay ([1]; 0.27 mg/kg): ~50 days
- tumor regression ([1]; 0.27 mg/kg): did not regress the tumors
- mean tumor volume ([1]; 0.27 mg/kg, Day 11): 250 ± 30
- mean tumor volume ([1]; 0.27 mg/kg, Day 18): 162 ± 24
- mean tumor volume ([1]; 0.27 mg/kg, Day 25): 142 ± 21
- mean tumor volume ([1]; 0.27 mg/kg, Day 95): 686 ± 111
- mean tumor volume ([1]; 0.27 mg/kg, Day 0): 152 ± 17
- mean tumor volume ([1]; 0.27 mg/kg, Day 5): 249 ± 35
- mean tumor volume ([1]; 0.27 mg/kg, Day 32): 137 ± 33
- mean tumor volume ([1]; 0.27 mg/kg, Day 39): 114 ± 43
- mean tumor volume ([1]; 0.27 mg/kg, Day 46): 140 ± 59
- mean tumor volume ([1]; 0.27 mg/kg, Day 53): 249 ± 152
- mean tumor volume ([1]; 0.27 mg/kg, Day 61): 242 ± 102
- mean tumor volume ([1]; 0.27 mg/kg, Day 67): 367 ± 143
- mean tumor volume ([1]; 0.27 mg/kg, Day 74): 452 ± 140
- mean tumor volume ([1]; 0.27 mg/kg, Day 81): 521 ± 130
- mean tumor volume ([1]; 0.27 mg/kg, Day 88): 619 ± 120
- mean tumor volume ([1]; 0.27 mg/kg, Day 102): 830 ± 82
- Regression (TTP, Days) ([1]; 0.27 mg/kg, OV44 PDX): Regression (53) Days
- effect on tumor growth ([1]; dose levels below 0.27 mg/kg): minimal effect
- Regression (TTP, Days) or % TGI (BR17): No Activity
- total ADC amount remaining ([2]; 1 μg/mL): 94.5%
- total antibody amount remaining ([2]; 1 μg/mL): 90.5%
- total ADC amount remaining ([2]; 50 μg/mL): 88.3%
- total antibody amount remaining ([2]; 50 μg/mL): 98.6%
- % total huE22 Ab remaining ([2]; 1 ug/mL, 0 hours): 100%
- % total huE22 Ab remaining ([2]; 1 ug/mL, 8 hours): 86.1%
- % total huE22 Ab remaining ([2]; 1 ug/mL, 24 hours): 87.5%
- % total huE22 Ab remaining ([2]; 1 ug/mL, 48 hours): 91.9%
- % total huE22 Ab remaining ([2]; 1 ug/mL, 72 hours): 92.1%
- % total huE22 Ab remaining ([2]; 1 ug/mL, 168 hours): 90.5%
- % total huE22 Ab remaining ([2]; 50 ug/mL, 0 hours): 100%
- % total huE22 Ab remaining ([2]; 50 ug/mL, 8 hours): 99.5%
- % total huE22 Ab remaining ([2]; 50 ug/mL, 24 hours): 113%
- % total huE22 Ab remaining ([2]; 50 ug/mL, 48 hours): 111%
- % total huE22 Ab remaining ([2]; 50 ug/mL, 72 hours): 92.9%
- % total huE22 Ab remaining ([2]; 50 ug/mL, 168 hours): 98.6%
- % huE22-AcBut-CM remaining ([2]; 1 ug/mL, 0 hours): 100%
- % huE22-AcBut-CM remaining ([2]; 1 ug/mL, 8 hours): 90.6%
- % huE22-AcBut-CM remaining ([2]; 50 ug/mL, 0 hours): 100%
- % huE22-AcBut-CM remaining ([2]; 50 ug/mL, 168 hours): 88.3%
